This assay relates to Influenza virus FM-1 strain. Conditions: 200 mg/kg subcutaneously, 14 days observation, control 0/8.

Regarding `O=c1nc(-c2ccccc2)c2cc([N+](=O)[O-])ccc2n1CC1CCCCO1` (stereo not shown) [compound 5], the Survival rate was 4/8.

Source of the values: patent publication US4146717A, “Nitroquinazolinone compounds having antiviral properties” (priority 1974, dated 1979).
